{"source": "the supplement of paper PMC8728848", "binders": {"B1": {"name": "Epa1 (Candida glabrata) (protein)", "chain": "MGSSHHHHHHSSGLVPRGSHMTSSNDISLASKDPTTFPLGCSPDITTPKKGLSMELYSYDFRKKGSYPCWDAAYLDPNYPRTGYKSHRLLAKVDGVTGNINFYYHATKGCTPQLGHLPASYNYPKPLTMTNFTMLLYGYFRPKVTGFHTFTISADDLLFVNFGAGNAFDCCRRDSSADHFGNYQAYAIWGSKTAKDELTVHLDAGVYYPIRLFYNNREYDGALSFTFKTESNENTVSDFSEYFFSLDDTEEGCPGLISYD"}}, "assay_in_all_cases": "glycan array binding signal (z-score within array); higher = stronger binding", "conditions_in_all_cases": "glycan notation: IUPAC condensed, linker removed", "key": {"[1]": {"molecular_target": "Neu5Ac(a2-3)Gal(b1-3)GlcNAc(b1-2)Man", "procedure,_shortened": "(§1)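 Glycan array binding is given as a within-array Z-score, which can be read as non-binding when negative. The arrays, 3228 of them, came from the Consortium for Functional Glycomics database and were retained only where the protein sequence was available. Z-scores were averaged across arrays of the same protein sequence at different concentrations or buffers and across linkers.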"}, "[2]": {"molecular_target": "Neu5Ac(a2-3)Gal(b1-3)GlcNAc(b1-2)Man(a1-3)[GlcNAc(b1-4)][Neu5Ac(a2-3)Gal(b1-3)GlcNAc(b1-2)Man(a1-6)]Man(b1-4)GlcNAc(b1-4)GlcNAc", "procedure,_shortened": "as §1"}, "[3]": {"molecular_target": "Neu5Ac(a2-3)Gal(b1-3)GlcNAc(b1-2)Man(a1-3)[Neu5Ac(a2-3)Gal(b1-3)GlcNAc(b1-2)Man(a1-6)]Man(b1-4)GlcNAc(b1-4)GlcNAc", "procedure,_shortened": "as §1"}, "[4]": {"molecular_target": "Neu5Ac(a2-3)Gal(b1-3)GlcNAc(b1-2)[Neu5Ac(a2-3)Gal(b1-3)GlcNAc(b1-4)]Man(a1-6)[Neu5Ac(a2-3)Gal(b1-3)GlcNAc(b1-2)Man(a1-3)]Man(b1-4)GlcNAc(b1-4)GlcNAc", "procedure,_shortened": "as §1"}, "[5]": {"molecular_target": "Neu5Ac(a2-3)Gal(b1-3)GlcNAc(b1-3)Gal(b1-3)GlcNAc", "procedure,_shortened": "as §1"}, "[6]": {"molecular_target": "Neu5Ac(a2-3)Gal(b1-3)GlcNAc(b1-3)Gal(b1-4)GlcNAc", "procedure,_shortened": "as §1"}, "[7]": {"molecular_target": "Neu5Ac(a2-3)Gal(b1-3)GlcNAc(b1-3)GalNAc", "procedure,_shortened": "as §1"}, "[8]": {"molecular_target": "Neu5Ac(a2-3)Gal(b1-3)GlcNAc(b1-4)Gal(b1-4)Glc", "procedure,_shortened": "as §1"}, "[9]": {"molecular_target": "Neu5Ac(a2-3)Gal(b1-3)GlcNAc(b1-6)GalNAc", "procedure,_shortened": "as §1"}, "[10]": {"molecular_target": "Neu5Ac(a2-3)Gal(b1-3)GlcNAc6S", "procedure,_shortened": "as §1"}, "[11]": {"molecular_target": "Neu5Ac(a2-3)Gal(b1-3)[Fuc(a1-4)]GlcNAc", "procedure,_shortened": "as §1"}, "[12]": {"molecular_target": "Neu5Ac(a2-3)Gal(b1-3)[Fuc(a1-4)]GlcNAc(b1-3)Gal(b1-3)[Fuc(a1-4)]GlcNAc", "procedure,_shortened": "as §1"}, "[13]": {"molecular_target": "Neu5Ac(a2-3)Gal(b1-3)[Fuc(a1-4)]GlcNAc(b1-3)Gal(b1-4)[Fuc(a1-3)]GlcNAc", "procedure,_shortened": "as §1"}, "[14]": {"molecular_target": "Neu5Ac(a2-3)Gal(b1-3)[GlcNAc(b1-6)]GalNAc", "procedure,_shortened": "as §1"}, "[15]": {"molecular_target": "Neu5Ac(a2-3)Gal(b1-3)[Neu5Ac(a2-6)]GalNAc", "procedure,_shortened": "as §1"}, "[16]": {"molecular_target": "Neu5Ac(a2-3)Gal(b1-3)[Neu5Ac(a2-6)]GlcNAc(b1-3)[Fuc(a1-3)[Gal(b1-4)]GlcNAc(b1-6)]Gal(b1-4)Glc", "procedure,_shortened": "as §1"}, "[17]": {"molecular_target": "Neu5Ac(a2-3)Gal(b1-3)]Neu5Ac(a2-3)Gal(b1-4)]GlcNAc", "procedure,_shortened": "as §1"}, "Neu5Ac(a2-3)Gal(b1-4)Glc": {"molecular_target": "Neu5Ac(a2-3)Gal(b1-4)Glc", "procedure,_shortened": "as §1"}, "[18]": {"molecular_target": "Neu5Ac(a2-3)Gal(b1-4)GlcNAc", "procedure,_shortened": "as §1"}, "[19]": {"molecular_target": "Neu5Ac(a2-3)Gal(b1-4)GlcNAc(b1-2)Man", "procedure,_shortened": "as §1"}, "[20]": {"molecular_target": "Neu5Ac(a2-3)Gal(b1-4)GlcNAc(b1-2)Man(a1-3)[GlcNAc(b1-4)][Neu5Ac(a2-3)Gal(b1-4)GlcNAc(b1-2)Man(a1-6)]Man(b1-4)GlcNAc(b1-4)GlcNAc", "procedure,_shortened": "as §1"}, "[21]": {"molecular_target": "Neu5Ac(a2-3)Gal(b1-4)GlcNAc(b1-2)Man(a1-3)[Neu5Ac(a2-3)Gal(b1-4)GlcNAc(b1-2)Man(a1-6)]Man(b1-4)GlcNAc(b1-4)GlcNAc", "procedure,_shortened": "as §1"}, "[22]": {"molecular_target": "Neu5Ac(a2-3)Gal(b1-4)GlcNAc(b1-2)Man(a1-3)[Neu5Ac(a2-3)Gal(b1-4)GlcNAc(b1-2)Man(a1-6)]Man(b1-4)GlcNAc(b1-4)[Fuc(a1-6)]GlcNAc", "procedure,_shortened": "as §1"}, "[23]": {"molecular_target": "Neu5Ac(a2-3)Gal(b1-4)GlcNAc(b1-2)Man(a1-3)[Neu5Ac(a2-6)Gal(b1-4)GlcNAc(b1-2)Man(a1-6)]Man(b1-4)GlcNAc(b1-4)GlcNAc", "procedure,_shortened": "as §1"}, "[24]": {"molecular_target": "Neu5Ac(a2-3)Gal(b1-4)GlcNAc(b1-2)[Neu5Ac(a2-3)Gal(b1-4)GlcNAc(b1-4)]Man(a1-3)[GlcNAc(b1-4)][Neu5Ac(a2-3)Gal(b1-4)GlcNAc(b1-2)[Neu5Ac(a2-3)Gal(b1-4)GlcNAc(b1-6)]Man(a1-6)]Man(b1-4)GlcNAc(b1-4)GlcNAc", "procedure,_shortened": "as §1"}, "[25]": {"molecular_target": "Neu5Ac(a2-3)Gal(b1-4)GlcNAc(b1-2)[Neu5Ac(a2-3)Gal(b1-4)GlcNAc(b1-4)]Man(a1-3)[GlcNAc(b1-4)][Neu5Ac(a2-3)Gal(b1-4)GlcNAc(b1-4)Man(a1-6)]Man(b1-4)GlcNAc(b1-4)GlcNAc", "procedure,_shortened": "as §1"}, "[26]": {"molecular_target": "Neu5Ac(a2-3)Gal(b1-4)GlcNAc(b1-2)[Neu5Ac(a2-3)Gal(b1-4)GlcNAc(b1-6)]Man(a1-6)[Neu5Ac(a2-3)Gal(b1-4)GlcNAc(b1-2)Man(a1-3)][GlcNAc(b1-4)]Man(b1-4)GlcNAc(b1-4)GlcNAc", "procedure,_shortened": "as §1"}, "[27]": {"molecular_target": "Neu5Ac(a2-3)Gal(b1-4)GlcNAc(b1-3)Gal", "procedure,_shortened": "as §1"}, "[28]": {"molecular_target": "Neu5Ac(a2-3)Gal(b1-4)GlcNAc(b1-3)Gal(b1-3)GlcNAc", "procedure,_shortened": "as §1"}, "[29]": {"molecular_target": "Neu5Ac(a2-3)Gal(b1-4)GlcNAc(b1-3)Gal(b1-4)GlcNAc", "procedure,_shortened": "as §1"}, "[30]": {"molecular_target": "Neu5Ac(a2-3)Gal(b1-4)GlcNAc(b1-3)Gal(b1-4)GlcNAc(b1-2)Man(a1-3)[Neu5Ac(a2-3)Gal(b1-4)GlcNAc(b1-3)Gal(b1-4)GlcNAc(b1-2)Man(a1-6)]Man(b1-4)GlcNAc(b1-4)GlcNAc", "procedure,_shortened": "as §1"}, "[31]": {"molecular_target": "Neu5Ac(a2-3)Gal(b1-4)GlcNAc(b1-3)Gal(b1-4)GlcNAc(b1-3)Gal(b1-4)GlcNAc", "procedure,_shortened": "as §1"}, "[32]": {"molecular_target": "Neu5Ac(a2-3)Gal(b1-4)GlcNAc(b1-3)Gal(b1-4)GlcNAc(b1-3)Gal(b1-4)GlcNAc(b1-2)Man(a1-3)[Neu5Ac(a2-3)Gal(b1-4)GlcNAc(b1-3)Gal(b1-4)GlcNAc(b1-3)Gal(b1-4)GlcNAc(b1-2)Man(a1-6)]GalNAc", "procedure,_shortened": "as §1"}, "[33]": {"molecular_target": "Neu5Ac(a2-3)Gal(b1-4)GlcNAc(b1-3)Gal(b1-4)GlcNAc(b1-3)GalNAc", "procedure,_shortened": "as §1"}, "[34]": {"molecular_target": "Neu5Ac(a2-3)Gal(b1-4)GlcNAc(b1-3)Gal(b1-4)GlcNAc(b1-3)[Neu5Ac(a2-3)Gal(b1-4)GlcNAc(b1-3)Gal(b1-4)GlcNAc(b1-6)]GalNAc", "procedure,_shortened": "as §1"}, "[35]": {"molecular_target": "Neu5Ac(a2-3)Gal(b1-4)GlcNAc(b1-3)Gal(b1-4)GlcNAc(b1-6)[Gal(b1-3)]GalNAc", "procedure,_shortened": "as §1"}, "[36]": {"molecular_target": "Neu5Ac(a2-3)Gal(b1-4)GlcNAc(b1-3)Gal(b1-4)[Fuc(a1-3)]GlcNAc", "procedure,_shortened": "as §1"}, "[37]": {"molecular_target": "Neu5Ac(a2-3)Gal(b1-4)GlcNAc(b1-3)GalNAc", "procedure,_shortened": "as §1"}}, "note": "This is one part of the list.", "data": [{"binder": "B1", "values": [{"measurement": "glycan array binding signal (z-score)", "setting": "[1]", "value": -0.302}, {"measurement": "glycan array binding signal (z-score)", "setting": "[2]", "value": -0.267}, {"measurement": "glycan array binding signal (z-score)", "setting": "[3]", "value": -0.325}, {"measurement": "glycan array binding signal (z-score)", "setting": "[4]", "value": -0.284}, {"measurement": "glycan array binding signal (z-score)", "setting": "[5]", "value": -0.4}, {"measurement": "glycan array binding signal (z-score)", "setting": "[6]", "value": -0.348}, {"measurement": "glycan array binding signal (z-score)", "setting": "[7]", "value": -0.295}, {"measurement": "glycan array binding signal (z-score)", "setting": "[8]", "value": -0.35}, {"measurement": "glycan array binding signal (z-score)", "setting": "[9]", "value": -0.293}, {"measurement": "glycan array binding signal (z-score)", "setting": "[10]", "value": -0.295}, {"measurement": "glycan array binding signal (z-score)", "setting": "[11]", "value": -0.296}, {"measurement": "glycan array binding signal (z-score)", "setting": "[12]", "value": -0.318}, {"measurement": "glycan array binding signal (z-score)", "setting": "[13]", "value": -0.238}, {"measurement": "glycan array binding signal (z-score)", "setting": "[14]", "value": -0.299}, {"measurement": "glycan array binding signal (z-score)", "setting": "[15]", "value": -0.166}, {"measurement": "glycan array binding signal (z-score)", "setting": "[16]", "value": -0.173}, {"measurement": "glycan array binding signal (z-score)", "setting": "[17]", "value": -0.296}, {"measurement": "glycan array binding signal (z-score)", "setting": "Neu5Ac(a2-3)Gal(b1-4)Glc", "value": -0.266}, {"measurement": "glycan array binding signal (z-score)", "setting": "[18]", "value": -0.268}, {"measurement": "glycan array binding signal (z-score)", "setting": "[19]", "value": -0.258}, {"measurement": "glycan array binding signal (z-score)", "setting": "[20]", "value": -0.289}, {"measurement": "glycan array binding signal (z-score)", "setting": "[21]", "value": -0.256}, {"measurement": "glycan array binding signal (z-score)", "setting": "[22]", "value": -0.283}, {"measurement": "glycan array binding signal (z-score)", "setting": "[23]", "value": -0.269}, {"measurement": "glycan array binding signal (z-score)", "setting": "[24]", "value": -0.332}, {"measurement": "glycan array binding signal (z-score)", "setting": "[25]", "value": -0.317}, {"measurement": "glycan array binding signal (z-score)", "setting": "[26]", "value": -0.338}, {"measurement": "glycan array binding signal (z-score)", "setting": "[27]", "value": -0.288}, {"measurement": "glycan array binding signal (z-score)", "setting": "[28]", "value": -0.304}, {"measurement": "glycan array binding signal (z-score)", "setting": "[29]", "value": -0.304}, {"measurement": "glycan array binding signal (z-score)", "setting": "[30]", "value": -0.257}, {"measurement": "glycan array binding signal (z-score)", "setting": "[31]", "value": -0.26}, {"measurement": "glycan array binding signal (z-score)", "setting": "[32]", "value": -0.222}, {"measurement": "glycan array binding signal (z-score)", "setting": "[33]", "value": -0.251}, {"measurement": "glycan array binding signal (z-score)", "setting": "[34]", "value": -0.054}, {"measurement": "glycan array binding signal (z-score)", "setting": "[35]", "value": 0.779}, {"measurement": "glycan array binding signal (z-score)", "setting": "[36]", "value": -0.397}, {"measurement": "glycan array binding signal (z-score)", "setting": "[37]", "value": -0.309}]}]}
